# Laboratory results as given in the supplement of paper PMC3334620.
# In all, about 33,000 sequences were measured (“E-score (-0.5 to 0.5)”: median about -0.017, highest 2% from about 0.3 on). The list shows a part of the results.
# Biological target: T1, Sut1 (UniProt P53032)
# T1 sequence: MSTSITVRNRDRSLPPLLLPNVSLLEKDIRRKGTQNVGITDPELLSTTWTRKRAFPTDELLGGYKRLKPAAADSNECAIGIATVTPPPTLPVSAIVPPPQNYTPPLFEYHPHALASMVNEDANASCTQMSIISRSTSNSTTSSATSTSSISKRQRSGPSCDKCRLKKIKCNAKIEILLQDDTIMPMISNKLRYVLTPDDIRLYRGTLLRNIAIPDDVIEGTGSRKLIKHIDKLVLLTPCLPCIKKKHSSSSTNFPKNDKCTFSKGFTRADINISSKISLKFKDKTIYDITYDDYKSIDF
# Assay: PBM E-score (8-mer binding enrichment) (E-score (-0.5 to 0.5)); higher = stronger / more preferred TF binding; most listed sequences are background and not binding sites
# Details: protein concentration: 200 nM; construct: GST-full length
# Outline: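 GST-tagged yeast TFs (full-length or DNA-binding domain) were made by PURExpress in vitro transcription/translation and applied at about 100-200 nM to universal all-10-mer Agilent arrays. The arrays were made double-stranded by primer extension, on fresh or once-stripped slides. Bound protein was detected with fluorescent anti-GST, and scans were normalised with masliner. Each ungapped eight-base word, pooled with its reverse complement, received an E-score (modified Wilcoxon-Mann-Whitney statistic) from the Universal PBM Analysis Suite.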
row,Sequence,PBM E-score
1,CGCACGAC,-0.215
2,ATTGCACA,-0.0797
3,GAGAAGTA,0.148
4,CCTGTCAC,-0.112
5,AACCGTTC,0.183
6,AGGTGGGC,-0.313
7,AGTCGAAT,-0.0274
8,ACCCACCT,-0.259
9,GTGAAGTA,0.0657
10,CCCGAGGG,-0.128
11,ATTTCGTC,0.0604
12,TATAACAA,0.319
13,CCTGTACC,-0.193
14,AATGAGAA,0.149
15,CCGACAAC,-0.0367
16,AACTTAGT,-0.0345
17,ATCATGTG,0.0581
18,CGGGATAC,-0.148
19,GGCTCCCC,-0.226
20,ATAATGCG,0.102
21,GCCTGGGA,-0.263
22,ACTGATCG,-0.0985
23,ACGGCAGA,-0.0292
24,CATCGAAC,-0.0517
25,AAACTACA,0.191

row,Sequence,PBM E-score
1,ACAGAAGC,0.0765
2,GCCATGGC,-0.275
3,CTCCCAGA,-0.211
4,ATACGAAC,0.115
5,GAGGGGGA,-0.29
6,AGCACCCA,-0.101
7,AGTTCCTA,0.0198
8,CCGCCGGC,0.158
9,CCGTCAGA,-0.282
10,ACACAAAA,0.164
11,ACTGAAAC,0.218
12,CTTTCCCC,0.0436
13,AGCTGCTG,-0.0338
14,ATGTTGTA,0.132
15,ACTGTGTG,-0.0933
16,ATTTTTAC,0.123
17,AACCTAGT,0.163
18,ACAGTAGT,-0.142
19,CGTCTATA,0.108
20,CACGACCC,-0.329
21,GCGTAGAA,0.0238
22,GACCTAAC,0.104
23,AAGTGTGT,-0.136
24,GGAAAGGA,0.0579
25,AACGCCGG,0.0841

row,Sequence,PBM E-score
1,CTAAACGA,-0.0248
2,CTTCTCGA,-0.0646
3,ATCTGGTG,-0.015
4,CATATAGA,0.253
5,ACGCGATC,-0.0951
6,ATGCCCAA,-0.0774
7,GGCTTCAC,0.0508
8,GCCGATGA,-0.0462
9,GAGACACC,-0.122
10,CGAGGACA,-0.18
11,AGTCTGAT,-0.00908
12,TAATCACA,0.0361
13,ATGAACCG,0.0188
14,ACGAAAGC,-0.0813
15,AATCGTCG,0.0792
16,ACCTTAAG,-0.024
17,CCCCGAAA,0.301
18,GAGGTCAC,-0.174
19,CGACCCCC,-0.353
20,ACCGGTGG,-0.137
21,GGACTCAC,-0.0577
22,CCACAGAC,-0.251
23,AATGACCG,0.0862
24,CCGTCGAC,-0.164
25,CCCCAGGA,-0.281

row,Sequence,PBM E-score
1,GCTGATAC,-0.114
2,AGAAGCTA,-0.0145
3,CAAGGCGG,-0.108
4,ACGTTGAC,-0.0954
5,GCAGGTAA,0.183
6,GTCCCCAA,-0.0154
7,AATGGCAC,-0.185
8,ATACCCAA,0.128
9,ATCTGCTA,0.0381
10,ACACGCCT,-0.166
11,CTCGCGCA,-0.187
12,GTGGTAGA,-0.153
13,AATGCGCG,0.0915
14,GTTCTAAA,0.134
15,AACACTTG,-0.0195
16,GCCTACAA,0.114
17,CCCCGAGA,0.168
18,TCGAGGAA,-0.0876
19,GATGATTA,0.0123
20,CGTCCGCA,-0.177
21,ACGTTTCC,-0.00725
22,CGCTCCAA,-0.179
23,CGCTCGTC,-0.196
24,ACTGCACG,-0.178
25,AACCGATG,0.00872

row,Sequence,PBM E-score
1,ACGATGAC,-0.0249
2,CGCGTCCG,-0.0607
3,GCCCGACA,-0.106
4,AATGAGCC,-0.184
5,AAATGTCT,0.103
6,GTCAATCA,-0.0403
7,CCAAGATC,-0.0417
8,ATCTTCCC,0.0466
9,AAAGCTGC,-0.222
10,ATGCCTCG,-0.0517
11,ACCGGGCA,-0.0525
12,AACGGTGG,-0.0614
13,CATAAGAG,0.0118
14,AGAAGCTC,0.0829
15,GGAGTGCC,0.269
16,CATGCAGC,-0.151
17,AGAGAGGG,-0.248
18,AAATATAC,0.217
19,GTTCTCCA,-0.0147
20,AACTAGTT,0.119
21,CGTATGGA,0.00471
22,CGACCAAA,0.118
23,CCATATAG,-0.0893
24,TAGGTGGA,0.0312
25,GGATCATA,-0.236

row,Sequence,PBM E-score
1,ATTAATGG,0.193
2,ATATACCA,0.0726
3,GCTGAGTA,-0.204
4,GGCTAACA,-0.0749
5,ACTCGTAC,-0.0551
6,ATTAACTA,0.195
7,CCAACTGG,-0.0126
8,ATACCGAC,-0.0668
9,CCCCGATA,0.15
10,CTCGTGGC,-0.118
11,GGTGAACC,-0.0876
12,CCCTTAAG,-0.0359
13,AGTCTATC,-0.223
14,AGTTAGAA,0.133
15,CCGGTGTA,0.136
16,AACGGCCT,-0.143
17,CCTAAGTA,0.0747
18,CTAAAAGA,0.0411
19,GCTTATCA,-0.0628
20,ATCCGATC,0.18
21,TATATTGA,0.332
22,ACAACATC,0.128
23,AATAACGC,-0.122
24,CGATCCAA,-0.0863
25,CTATGTAA,0.0452

row,Sequence,PBM E-score
1,ATCGAATG,-0.067
2,AGCACTAT,-0.0409
3,GAGGAGTA,-0.0389
4,GCAACGTA,-0.127
5,CACACTTA,0.115
6,AGGCCTGA,-0.158
7,AGTGGCTG,-0.0943
8,ACGTTCAT,0.0519
9,GGGCCAGA,-0.158
10,GACACCCA,-0.118
11,AAGAATCT,-0.016
12,GATCTCCA,-0.0913
13,ACTCTTAG,-0.21
14,GAACCAAC,0.064
15,GATATCGA,0.0354
16,ATCCGCCA,-0.133
17,GATACGAC,0.0584
18,GGCTTCCC,-0.108
19,AGGTCGAT,0.0792
20,GTGCCTTA,-0.122
21,GTTTAACA,-0.00835
22,AGTACCTC,-0.189
